Source: the RNAGym collection of RNA variant scans (doi:10.1093/nar/gkz1192)
Read counts are not given, so values of variants with three or more changes are uncertain.

B1: CPEB3 Ribozyme (parent)
chain: UAACAGGGGGCCACAGCAGAAGCGUUCACGUCGCAGCCCCUGUCAGAUUCUGGUGAAUCUGCGAAUUCUGCUGUAUAUCUC

Variants of: B1
Experiment: self-cleavage, relative activity (ratio to wild type); higher = more cleavage; in vitro, sequencing
Method in brief: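 CPEB3 self-cleaving ribozyme mutant libraries were made by rounds of error-prone PCR, barcoded, and transcribed in vitro with T7 RNA polymerase for 5 hours at 37°C. Cleavage occurred during transcription and a 15 min DNase I step before EDTA stop. RNAs were reverse transcribed with template switching and Illumina-sequenced, with DNA sequencing mapping barcodes to variants. Relative activity is the variant's cleaved/total read fraction divided by wild type's (minimum 5 reads), averaged across three batches.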
Variant UAACAGGGGGCCACAGCAGAAGCGUUCACGUCGCAGCCCCCGUCAGAUUCUGGUGAGUCUGUGAAUUCUGCGGUAUAUCUC [U41C A57G C62U U72G] has a self-cleavage of 0.39. In the case of UAACAGGGGGCCACAGCAGAAGCGUUCACGUCGCAGCCCCCGUGAGAUUCUGGUGAGUCUGCGAAUUCUGCUGUAUAUCUC [U41C C44G A57G], the self-cleavage is reported as 0.27. In the case of UAACAGGGGGCCACAGCAGAAGCGUUCACGUCGCAGCCCCCGUCAGAUUCUGGUGUAUCUGCGAAUUCAGCUGUAUAUCUC [U41C A56U U69A], the self-cleavage is reported as 0.46. With UAACAGGGGGCCACAGCAGAAGCGUUCACGUCGCAGCCCCCGUCAGAUUCUGGUGUAUCAGCGAAUCCUGCUGUAUAUCUC [U41C A56U U60A U67C] the self-cleavage was 0.26. Variant UAACAGGGGGCCACAGCAGAAGCGUUCACGUCGCAGCCCCCGUCAGAUUCUGGUGAAUCUGCGAGUUCUGCUGUACAUCUC [U41C A65G U76C] has a self-cleavage of 0.65. UAACAGGGGGCCACAGCAGAAGCGUUCACGUCGCAGCCCCCGUCAGAUUCUGGUGAGUCUGCGAAUUCUGCUGUAAAUCUC [U41C A57G U76A] showed a self-cleavage of 1.12. With UAACAGGGGGCCACAGCAGAAGCGUUCACGUCGCAGCCCCCGUCAGAUUCUGGUGAAUCUGCGUAUUCUGCUGUAUGUCUC [U41C A64U A77G] the self-cleavage was 0.29. Variant UAACAGGGGGCCACAGCAGAAGCGUUCACGUCGCAGCCCCCGUCAGAUUCUGGUGGAUCUGCGAAUUCUGCUGUAUAUCCC [U41C A56G U80C] has a self-cleavage of 0.71. With UAACAGGGGGCCACAGCAGAAGCGUUCACGUCGCAGCCCCCGUCAGAUUCUGGUGAAUCUGCGAAUUCUGCUGUUUAUCAC [U41C A75U U80A] the self-cleavage was 1.22. UAACAGGGGGCCACAGCAGAAGCGUUCACGUCGCAGCCCCCGUCAGAUUCUGGUGGAUCUGCGAAUUCUGCCGUAUAUCUC [U41C A56G U72C] gave a self-cleavage of 0.91. In the case of UAACAGGGGGCCACAGCAGAAGCGUUCACGUCGCAGCCCCCGUCAGAUUCUGGUGAGUCUGCGAAUUCCGCUGUACAUCUC [U41C A57G U69C U76C], the self-cleavage is reported as 0.66. Variant UAACAGGGGGCCACAGCAGAAGCGUUCACGUCGCAGCCCCCGUCAGAUUCUGGUGACUCUGCGAAUUCUUCUGUAUAUCUC [U41C A57C G70U] has a self-cleavage of 0.18. Work on UAACAGGGGGCCACAGCAGAAGCGUUCACGUCGCAGCCCCCGUCAGAUUCUGGUGGAUCUGCGAAUUCUGCUGUAUACCUC [U41C A56G U78C] yielded a self-cleavage of 0.95. In the case of UAACAGGGGGCCACAGCAGAAGCGUUCACGUCGCAGCCCCCGUCAGAUUCUGGUGAAUCUGCGUACUUCGCUGUAUGUCUC [U41C A64U U66C C68U U69C A77G], the self-cleavage is reported as 0.22. Variant UAACAGGGGGCCACAGCAGAAGCGUUCACGUCGCAGCCCCCGUCAGAUUCUGGUGAUUCUGCGAAUUCUGCUGUAUAUCCC [U41C A57U U80C] has a self-cleavage of 0.76. In the case of UAACAGGGGGCCACAGCAGAAGCGUUCACGUCGCAGCCCCCGUCAGAUUCUGGUGAAUCUGCGUACUCUGCUGUAUAUCUC [U41C A64U U66C], the self-cleavage is reported as 0.46. Variant UAACAGGGGGCCACAGCAGAAGCGUUCACGUCGCAGCCCCCGUCAGAUUCUGGUGAGUCUGCGAAUUCUGCUGUAUAUCCC [U41C A57G U80C] has a self-cleavage of 0.81. With UAACAGGGGGCCACAGCAGAAGCGUUCACGUCGCAGCCCCCGUCAGAUUCUGGUGUAUCUGCGUAUUCUGCUGUAUAUCUC [U41C A56U A64U] the self-cleavage was 0.31. Work on UAACAGGGGGCCACAGCAGAAGCGUUCACGUCGCAGCCCCCGUCAGAUUCUGGUGAGUCUGCGAAUACUGCUGUAUAUCUC [U41C A57G U67A] yielded a self-cleavage of 0.51. UAACAGGGGGCCACAGCAGAAGCGUUCACGUCGCAGCCCCCGUCAGAUUCUGGUGAAUCUGCGUAUUCUGCUGCAUAUCUC [U41C A64U U74C] gave a self-cleavage of 0.53. In the case of UAACAGGGGGCCACAGCAGAAGCGUUCACGUCGCAGCCCCCGUCAGAUUCUGGUGAAUCUGCGUAUUCUGCUGUGUAUCUC [U41C A64U A75G], the self-cleavage is reported as 0.47. With UAACAGGGGGCCACAGCAGAAGCGUUCACGUCGCAGCCCCCGUCAGAUUCUGGUGUAUCCGCGAAUUCUGCUGUAUAUCUC [U41C A56U U60C] the self-cleavage was 0.15. With UAACAGGGGGCCACAGCAGAAGCGUUCACGUCGCAGCCCCCGUCAGAUUCUGGUGAGACUGCGAAUUCUGCUGUAUAUCUC [U41C A57G U58A] the self-cleavage was 0.37. Variant UAACAGGGGGCCACAGCAGAAGCGUUCACGUCGCAGCCCCCGUCAGAUUCUGGUGAAUCUGCGCUUUUCGCUGUAUAUCUC [U41C A64C A65U C68U U69C] has a self-cleavage of 0.2. UAACAGGGGGCCACAGCAGAAGCGUUCACGUCGCAGCCCCCGUCAGAUUCUGGUGAAUCUGCGGAUUCUGCUGUGUAUCUC [U41C A64G A75G] gave a self-cleavage of 0.57. In the case of UAACAGGGGGCCACAGCAGAAGCGUUCACGUCGCAGCCCCCGUCAGAUUCUGGUGAGUCUGCGAAUUCUGCUAUAUAUCUC [U41C A57G G73A], the self-cleavage is reported as 1.23. In the case of UAACAGGGGGCCACAGCAGAAGCGUUCACGUCGCAGCCCCCGUCAGAUUCUGGUGAGUCUGAGAAUUCUGCUGUAUAUCUC [U41C A57G C62A], the self-cleavage is reported as 0.14. UAACAGGGGGCCACAGCAGAAGCGUUCACGUCGCAGCCCCCGUCAGAUUCUGGUGAGUCUGCGAAUUCUGCUGUAUAUUUC [U41C A57G C79U] showed a self-cleavage of 1.28. Variant UAACAGGGGGCCACAGCAGAAGCGUUCACGUCGCAGCCCCCGUCAGAUUCUGGUGAAUCUGCGAGUUCAGCUGCAUAUCUC [U41C A65G U69A U74C] has a self-cleavage of 0.35. For UAACAGGGGGCCACAGCAGAAGCGUUCACGUCGCAGCCCCCGUCAGAUUCUGGUGAUUCUGCGAACUCUGCUGCAUAUCUC [U41C A57U U66C U74C], the self-cleavage was 0.48. For UAACAGGGGGCCACAGCAGAAGCGUUCACGUCGCAGCCCCCGUCAGAUUCUGGUGGAUCUGCGAAUUCUGCUGUAAAUCCC [U41C A56G U76A U80C], the self-cleavage was 0.78. UAACAGGGGGCCACAGCAGAAGCGUUCACGUCGCAGCCCCCGUCAGAUUCUGGUGAAUCUGCGGACUCUGCUGUAUAUCUC [U41C A64G U66C] showed a self-cleavage of 0.3. With UAACAGGGGGCCACAGCAGAAGCGUUCACGUCGCAGCCCCCGUCAGAUUCUGGUGAGUCUACGUAUCCAGCUGUAUUUCUC [U41C A57G G61A A64U U67C U69A A77U] the self-cleavage was 0.29. UAACAGGGGGCCACAGCAGAAGCGUUCACGUCGCAGCCCCCGUCAGAUUCUGGUGAGUCUGCGACUUCUGCUGUUUAUCUC [U41C A57G A65C A75U] gave a self-cleavage of 0.15.
